The supplement of paper PMC10037445
The full ranking holds about 2,900 compounds; the median of “IRF Lucia reporter activity, fold change vs agonist alone” is about 0.9, and the highest 2% start at about 2.8. This is one part of the list.

Legend:
[1] = tested on: RAW-Dual; test: IRF Lucia reporter activity, fold change vs agonist alone; cytotoxicity flag (confluency mask): not cytotoxic; higher = enhanced IRF activity
Summary of the method: (§1)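 Cytotoxic wells were those whose IncuCyte confluency was below 70% of agonist controls in both mask sets. The cells were RAW-Dual macrophages at 50,000 cells/well in DMEM on 384-well plates, dosed with 50 nL of library stock by pin tool, stimulated with a PRR agonist 1 h later, and kept at 37 °C, 5% CO2 for 20 hours. IRF and NF-κB reporter activity, as fold change over agonist-alone wells, came from supernatant read by QuantiLuc luminescence and QuantiBlue absorbance, respectively.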

[2] = tested on: RAW-Dual; test: IRF Lucia reporter activity, fold change vs agonist alone; higher = enhanced IRF activity; settings: library stock concentration (final ~1000-fold dilution): 10 mM, agonist: MPLA (TLR4) […]
Summary of the method: as §1

[3] = tested on: RAW-Dual; test: IRF Lucia reporter activity, fold change vs agonist alone; cytotoxicity flag (confluency mask): cytotoxic (confluency <70% of control); higher = enhanced IRF activity
Summary of the method: as §1

[4] = agonist: 3'3'-cGAMP (STING) 10 ug/mL
[5] = cytotoxicity flag (confluency mask): not cytotoxic

Compound: COc1cc2c(cc1OC)C1CC(OC(=O)C(N)C(C)C)C(CC(C)C)CN1CC2.Cc1ccc(S(=O)(=O)O)cc1.Cc1ccc(S(=O)(=O)O)cc1 (stereo unspecified) (library stock concentration (final ~1000-fold dilution): 10 mM)
- IRF Lucia reporter activity [1, 4]: 0.978
- IRF Lucia reporter activity ([1]; agonist: LPS (TLR4) 0.1 ug/mL): 1.17

Compound: COc1cc(NS(=O)(=O)c2ccc(N)cc2)ncn1
- IRF Lucia reporter activity [2, 5]: 1.06

Compound: COc1cc(NS(=O)(=O)c2ccc(N)cc2)ncn1 (library stock concentration (final ~1000-fold dilution): 10 mM)
- IRF Lucia reporter activity [1, 4]: 0.998
- IRF Lucia reporter activity ([1]; agonist: LPS (TLR4) 0.1 ug/mL): 1.13

Compound: CC1(F)C(O)C(CO)OC1n1ccc(=O)[nH]c1=O (stereo unspecified) (library stock concentration (final ~1000-fold dilution): 10 mM)
- IRF Lucia reporter activity [1, 4]: 0.947
- IRF Lucia reporter activity ([1]; agonist: LPS (TLR4) 0.1 ug/mL): 0.777

Compound: CC1(F)C(O)C(CO)OC1n1ccc(=O)[nH]c1=O (stereo unspecified)
- IRF Lucia reporter activity [2, 5]: 1.03

Compound: CN1CCN2c3ncccc3Cc3ccccc3C2C1 (stereo unspecified) (library stock concentration (final ~1000-fold dilution): 10 mM)
- IRF Lucia reporter activity [1, 4]: 1.17
- IRF Lucia reporter activity ([1]; agonist: LPS (TLR4) 0.1 ug/mL): 0.744

Compound: CN1CCN2c3ncccc3Cc3ccccc3C2C1 (stereo unspecified)
- IRF Lucia reporter activity [2, 5]: 0.931

Compound: NS(=O)(=O)c1ccc(NC(=S)N2CCN(C/C=C/c3ccccc3)CC2)cc1 (library stock concentration (final ~1000-fold dilution): 10 mM)
- IRF Lucia reporter activity [1, 4]: 1.05
- IRF Lucia reporter activity ([1]; agonist: LPS (TLR4) 0.1 ug/mL): 1.16

Compound: CCOC(=O)C(CCc1ccccc1)NC1CSC(c2cccs2)CN(CC(=O)O)C1=O.Cl (stereo unspecified)
- IRF Lucia reporter activity [2, 5]: 0.888

Compound: CCOC(=O)C(CCc1ccccc1)NC1CSC(c2cccs2)CN(CC(=O)O)C1=O.Cl (stereo unspecified) (library stock concentration (final ~1000-fold dilution): 10 mM)
- IRF Lucia reporter activity [1, 4]: 0.998
- IRF Lucia reporter activity ([1]; agonist: LPS (TLR4) 0.1 ug/mL): 1.07

Compound: COc1ccccc1N1CCN(CC(O)COc2cccc3ccccc23)CC1.Cl.Cl (stereo unspecified)
- IRF Lucia reporter activity [2, 5]: 1.08

Compound: COc1ccccc1N1CCN(CC(O)COc2cccc3ccccc23)CC1.Cl.Cl (stereo unspecified) (library stock concentration (final ~1000-fold dilution): 10 mM)
- IRF Lucia reporter activity [1, 4]: 0.885
- IRF Lucia reporter activity ([1]; agonist: LPS (TLR4) 0.1 ug/mL): 1.08

Compound: COc1ccc2cc(-c3[nH]c(-c4ccc(S(C)=O)cc4)nc3-c3ccncc3)ccc2c1 (stereo unspecified) (library stock concentration (final ~1000-fold dilution): 10 mM)
- IRF Lucia reporter activity [1, 4]: 0.0441
- IRF Lucia reporter activity ([1]; agonist: LPS (TLR4) 0.1 ug/mL): 0.466

Compound: COc1ccc2cc(-c3[nH]c(-c4ccc(S(C)=O)cc4)nc3-c3ccncc3)ccc2c1 (stereo unspecified)
- IRF Lucia reporter activity [2, 5]: 0.798

Compound: Cc1nc(C(=O)NCC(=O)O)c(O)c2ccc(Oc3ccccc3)cc12 (library stock concentration (final ~1000-fold dilution): 10 mM)
- IRF Lucia reporter activity [1, 4]: 0.595
- IRF Lucia reporter activity ([1]; agonist: LPS (TLR4) 0.1 ug/mL): 1.47

Compound: Cc1nc(C(=O)NCC(=O)O)c(O)c2ccc(Oc3ccccc3)cc12
- IRF Lucia reporter activity [2, 5]: 1.15

Compound: CCOC(=O)C1=C(N)Oc2ccc(Cl)cc2C1C(C#N)C(=O)OCC (stereo unspecified) (library stock concentration (final ~1000-fold dilution): 10 mM)
- IRF Lucia reporter activity [3, 4]: 0.086
- IRF Lucia reporter activity ([3]; agonist: LPS (TLR4) 0.1 ug/mL): 1.63

Compound: COc1nc2ccc(Br)cc2cc1C(c1ccccc1)C(O)(CCN(C)C)c1cccc2ccccc12 (stereo unspecified) (library stock concentration (final ~1000-fold dilution): 10 mM)
- IRF Lucia reporter activity [1, 4]: 0.869
- IRF Lucia reporter activity ([1]; agonist: LPS (TLR4) 0.1 ug/mL): 0.375

Compound: COc1nc2ccc(Br)cc2cc1C(c1ccccc1)C(O)(CCN(C)C)c1cccc2ccccc12 (stereo unspecified)
- IRF Lucia reporter activity [2, 5]: 0.763

Compound: COc1cc2c(NC3CCN(C(C)C)CC3)nc(N3CCC(F)(F)CC3)nc2cc1OCCCN1CCCC1 (library stock concentration (final ~1000-fold dilution): 10 mM)
- IRF Lucia reporter activity [3, 4]: 0.849
- IRF Lucia reporter activity ([3]; agonist: LPS (TLR4) 0.1 ug/mL): 4.2

Compound: COc1cc2c(NC3CCN(C(C)C)CC3)nc(N3CCC(F)(F)CC3)nc2cc1OCCCN1CCCC1
- IRF Lucia reporter activity ([2]; cytotoxicity flag (confluency mask): cytotoxic (confluency <70% of control)): 0.652

Compound: CCn1c(=O)c(-c2ccn[nH]2)cc2c(C)nc(N)nc21 (library stock concentration (final ~1000-fold dilution): 10 mM)
- IRF Lucia reporter activity [1, 4]: 0.238
- IRF Lucia reporter activity ([1]; agonist: LPS (TLR4) 0.1 ug/mL): 0.702

Compound: CCc1cccc(CC)c1NC(=O)N1Cc2[nH]nc(NC(=O)c3ccc(N4CCN(C)CC4)cc3)c2C1 (library stock concentration (final ~1000-fold dilution): 10 mM)
- IRF Lucia reporter activity [1, 4]: 0.425
- IRF Lucia reporter activity ([1]; agonist: LPS (TLR4) 0.1 ug/mL): 0.383

Compound: CCc1cccc(CC)c1NC(=O)N1Cc2[nH]nc(NC(=O)c3ccc(N4CCN(C)CC4)cc3)c2C1
- IRF Lucia reporter activity [2, 5]: 0.317

Compound: COc1ccc(Cl)cc1C(=O)NCCc1ccc(S(=O)(=O)NC(=O)NC2CCCCC2)cc1 (library stock concentration (final ~1000-fold dilution): 50 mM)
- IRF Lucia reporter activity [1, 4]: 0.761
- IRF Lucia reporter activity ([1]; agonist: LPS (TLR4) 0.1 ug/mL): 1.09

Compound: N#Cc1ccc2ncnc(NCCc3ccccc3)c2c1 (library stock concentration (final ~1000-fold dilution): 10 mM)
- IRF Lucia reporter activity [1, 4]: 0.147
- IRF Lucia reporter activity ([1]; agonist: LPS (TLR4) 0.1 ug/mL): 0.399

Compound: O=[N+]([O-])c1ccc(Nc2nc(N3CCOCC3)nc(N3CCOCC3)n2)cc1 (library stock concentration (final ~1000-fold dilution): 10 mM)
- IRF Lucia reporter activity [1, 4]: 0.372
- IRF Lucia reporter activity ([1]; agonist: LPS (TLR4) 0.1 ug/mL): 1.09

Compound: O=C1O[C@H]([C@@H](O)CO)C([O-])=C1O.[Na+] (library stock concentration (final ~1000-fold dilution): 10 mM water)
- IRF Lucia reporter activity [1, 4]: 1.45
- IRF Lucia reporter activity ([1]; agonist: LPS (TLR4) 0.1 ug/mL): 0.717
